# From PMC4242493
# Some of the results follow. The list includes weakly bound sequences.
# Target: MaxL homodimer (UniProt P61244)
# Assay: universal protein-binding microarray (PBM)
# Conditions: PBS-based mixture, 10 nM His-tagged protein dimer, 2% milk, 200 ng/uL BSA, 50 ng/uL salmon testes DNA, 0.02% TX-100; detection with Alexa 488 anti-His …; high values mean tight binding; most listed sequences are background and not binding sites; double strand, one strand shown
# UniProt P61244, sequence (P61244 whole entry): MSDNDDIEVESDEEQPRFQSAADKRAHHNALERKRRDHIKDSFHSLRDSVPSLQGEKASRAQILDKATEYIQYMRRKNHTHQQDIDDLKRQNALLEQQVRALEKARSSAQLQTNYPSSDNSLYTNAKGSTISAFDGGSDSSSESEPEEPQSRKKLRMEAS
row,Sequence,binding signal (normalized occupancy)
1,GACATACC,0.0783
2,CATTTGGG,0.0756
3,AGAAATAA,0.0763
4,CTTTAGTC,0.0713
5,AGTGATGC,0.075
6,ACTTGTCT,0.0716
7,GCGGGTAC,0.0732
8,GGCACGTA,0.0814
9,CAGCAAGG,0.0734
10,ATTCGACG,0.0735
11,CTAATTGA,0.0722
12,CAGAACAG,0.0724
13,ACATTCGG,0.0816
14,CGTTGCCC,0.0707
15,GAAGGCGC,0.0709
16,GCTGACTA,0.0763
17,CTCTTAAG,0.0731
18,ATAAGCTA,0.074
19,TCACCTGA,0.0809
20,CACAAGTA,0.0831
21,TACGCGTA,0.0797
22,CTGCTCAC,0.0763
23,CAAACCCC,0.0805
24,ACTATCGG,0.0728
25,ACTCCCAC,0.08

row,Sequence,binding signal (normalized occupancy)
1,AATCCTTG,0.079
2,TCAATGGA,0.0734
3,CTATCATA,0.0872
4,CGGGAGCA,0.0676
5,CAGAGCCG,0.0668
6,ATCGACCC,0.0797
7,CATGAGCC,0.0857
8,TCGGCAGA,0.0678
9,AGAGGTGA,0.0713
10,CGTGCACC,0.095
11,GTAGGGCA,0.0716
12,ATGATTGA,0.0876
13,CGCTTGAC,0.0693
14,ATTAGGCC,0.0684
15,AAAACGCA,0.0753
16,AAGATCCC,0.0715
17,TGGGCTAA,0.0686
18,CTAATAAG,0.076
19,GTCCTGCA,0.0732
20,GGGGCGAA,0.0746
21,GTTCTACA,0.0827
22,CGGTCGGA,0.0734
23,AGCGGGAG,0.075
24,CGAATCCC,0.075
25,TGATAACA,0.0843

row,Sequence,binding signal (normalized occupancy)
1,TCACATCA,0.0817
2,CAACTGTC,0.0726
3,TCTTGACA,0.0744
4,GTGAAACA,0.0781
5,CCAGGGCA,0.0702
6,CGAGGCGA,0.0704
7,ACGACGGA,0.0742
8,CAAATATC,0.0777
9,AACATGAA,0.0878
10,TAAGTCCA,0.0677
11,CCGGTTAG,0.0736
12,TATTAATA,0.0848
13,CCTAGAAA,0.0717
14,CTTTAAAA,0.0708
15,GTTCAATA,0.0838
16,GTAACACA,0.0828
17,TAGGGATA,0.079
18,CCCGACGC,0.0707
19,ACGGCCTC,0.0653
20,TTATAAAA,0.0756
21,TGTTAGAA,0.082
22,CGGCAACG,0.074
23,CTCCCGGA,0.0662
24,CTTGCCGC,0.0715
25,GCAGTGGA,0.0724

row,Sequence,binding signal (normalized occupancy)
1,TAGAAGGA,0.0744
2,TGAAGCAA,0.0784
3,CTTAGTTC,0.0705
4,AACAATTG,0.0699
5,GAGATGGC,0.0747
6,GCCCCGCA,0.075
7,GCAACTGA,0.0721
8,GTTCGAAA,0.0748
9,CGGAAAAG,0.0691
10,ATAGTTAC,0.0811
11,TAGGATCA,0.0832
12,CCCCAGGC,0.0696
13,CTTAAGAC,0.0718
14,CAGCATAA,0.0808
15,AACCTAGC,0.0694
16,ACAGCCCT,0.0731
17,ATGCGGAG,0.0844
18,ATACCAGC,0.076
19,ACCTGTCG,0.0794
20,ACAAAGGC,0.0748
21,CGCCGAAA,0.0723
22,CAGGGCCA,0.0682
23,ACCAAGCG,0.0722
24,AGGGGGGC,0.0735
25,ATTGTATG,0.0787

row,Sequence,binding signal (normalized occupancy)
1,CGTATTTC,0.0733
2,CTTGCAAA,0.0707
3,CAAACCGG,0.0699
4,CCCACTCA,0.0811
5,AGATTCTC,0.0727
6,CTGGTCAA,0.0758
7,CAGACTCC,0.0711
8,GTTCTCCA,0.0767
9,AAGATGGA,0.0778
10,CGTCACAC,0.0847
11,ATGCATAA,0.0852
12,GGAATACC,0.0749
13,TACGCAGA,0.0734
14,CCTATACA,0.0875
15,GGACCTAC,0.07
16,CAACGACG,0.0689
17,CGCGTAAC,0.0752
18,CATCTCGG,0.0691
19,GCCCAGAA,0.0711
20,AATACATG,0.0934
21,AAGTAGAC,0.0735
22,CCAGACCA,0.0787
23,ATGGCGAG,0.0825
24,CTCACCCA,0.0813
25,CGTTCTGC,0.0681

row,Sequence,binding signal (normalized occupancy)
1,AACGGATC,0.0724
2,ATCGTCAA,0.0733
3,GACCGGGC,0.0681
4,CAAGCCAC,0.073
5,CAGTGGAC,0.0709
6,GTTCCAAC,0.0734
7,GTTCACGA,0.0769
8,AGTAAGCG,0.0712
9,GAATATGA,0.0824
10,CCCGGTCA,0.0714
11,AGTGTTTA,0.0765
12,GCAAAGGA,0.0773
13,GAGGTGGC,0.0764
14,ATATGTTC,0.0831
15,TCCCTCCA,0.075
16,AATGGTTG,0.0726
17,ACGATAGT,0.0776
18,CGAAGCGA,0.0654
19,CCGATCGG,0.0714
20,CAATAACC,0.0764
21,ACTCACTA,0.075
22,ACAATTCA,0.0745
23,AAAGCACA,0.0821
24,AGTTACAA,0.078
25,GTTAAACA,0.0748

row,Sequence,binding signal (normalized occupancy)
1,AGTTAAAG,0.0717
2,ATACCGTG,0.0839
3,CAGCGCCG,0.0666
4,ATTGCGAA,0.074
5,CTTCTCCC,0.0744
6,ACCGCTGC,0.0713
7,CGCCGTCC,0.073
8,CTGAAACC,0.0744
9,CGAGACTA,0.0737
10,AGTTTAGA,0.0768
11,GCTACAAC,0.0711
12,GCCTGTAA,0.0783
13,CATGGAGA,0.0883
14,CATTACAG,0.0807
15,CTAAATGC,0.0737
16,AGTCGGTC,0.0712
17,CCGGATAA,0.0763
18,CTACTACC,0.0741
19,CCCCGAGG,0.0716
20,CGCGAACA,0.0751
21,AGCACCCG,0.0761
22,CAATACAC,0.0814
23,AGTTATAA,0.0756
24,CAGCTCGA,0.0692
25,ACGCACCT,0.0799

row,Sequence,binding signal (normalized occupancy)
1,AGAAGGGG,0.0791
2,GACTTGGC,0.0635
3,TCAAGAGA,0.0709
4,AAATGTGG,0.088
5,AAGAGCTC,0.0682
6,CTTGATTA,0.0744
7,CAGTAAAG,0.076
8,ATCTTTAA,0.0773
9,AGTACTAT,0.0713
10,CCATTAGG,0.0714
11,GAGAATCA,0.073
12,CGTGCCAC,0.087
13,ATACCGAG,0.0718
14,TCGATACA,0.0806
15,GCCGAAAC,0.0728
16,ACAATGAC,0.0803
17,CATTAATA,0.0783
18,AGGCCGAG,0.069
19,GCACCAGC,0.0755
20,CACTAGGA,0.0706
21,GAGACGAC,0.071
22,CCGTCGTA,0.0747
23,AGCATCGG,0.07
24,AATTCCTA,0.0804
25,CCTCCCCC,0.0844

row,Sequence,binding signal (normalized occupancy)
1,CTGAGCGC,0.0695
2,CAATTGCG,0.0708
3,GGGCGCAA,0.0657
4,ATTAACTA,0.0821
5,ACACACGT,0.0986
6,AGTCACCC,0.0791
7,CCGGTGCA,0.0721
8,GAGTATAA,0.0759
9,GCTCAAGA,0.0721
10,GGAGTCAA,0.0703
11,GGGTTATA,0.0839
12,CGGATACA,0.0858
13,ATGGCCCA,0.0782
14,AGCGGAAC,0.0655
15,CGCTACAC,0.079
16,GCTCCACC,0.073
17,CAGCCTCG,0.0735
18,CGAAACGC,0.0714
19,CCCGAGCG,0.0639
